Measurements reported in publication PMC4336329 (PLoS ONE, 2015).
Hit rate of the full screen: of about 310,000 compounds, about 2,200 (0.71%) showed an effect of 50% or more. The effect is printed as a negative number. This is one part of the list.

Target: human ether-à-go-go-related gene (hERG) potassium channel (human, UniProt Q12809)
Assay: primary screen, population patch clamp on CHO cells stably expressing hERG

Chain of human ether-à-go-go-related gene (hERG) potassium channel (Q12809 whole entry, looked up): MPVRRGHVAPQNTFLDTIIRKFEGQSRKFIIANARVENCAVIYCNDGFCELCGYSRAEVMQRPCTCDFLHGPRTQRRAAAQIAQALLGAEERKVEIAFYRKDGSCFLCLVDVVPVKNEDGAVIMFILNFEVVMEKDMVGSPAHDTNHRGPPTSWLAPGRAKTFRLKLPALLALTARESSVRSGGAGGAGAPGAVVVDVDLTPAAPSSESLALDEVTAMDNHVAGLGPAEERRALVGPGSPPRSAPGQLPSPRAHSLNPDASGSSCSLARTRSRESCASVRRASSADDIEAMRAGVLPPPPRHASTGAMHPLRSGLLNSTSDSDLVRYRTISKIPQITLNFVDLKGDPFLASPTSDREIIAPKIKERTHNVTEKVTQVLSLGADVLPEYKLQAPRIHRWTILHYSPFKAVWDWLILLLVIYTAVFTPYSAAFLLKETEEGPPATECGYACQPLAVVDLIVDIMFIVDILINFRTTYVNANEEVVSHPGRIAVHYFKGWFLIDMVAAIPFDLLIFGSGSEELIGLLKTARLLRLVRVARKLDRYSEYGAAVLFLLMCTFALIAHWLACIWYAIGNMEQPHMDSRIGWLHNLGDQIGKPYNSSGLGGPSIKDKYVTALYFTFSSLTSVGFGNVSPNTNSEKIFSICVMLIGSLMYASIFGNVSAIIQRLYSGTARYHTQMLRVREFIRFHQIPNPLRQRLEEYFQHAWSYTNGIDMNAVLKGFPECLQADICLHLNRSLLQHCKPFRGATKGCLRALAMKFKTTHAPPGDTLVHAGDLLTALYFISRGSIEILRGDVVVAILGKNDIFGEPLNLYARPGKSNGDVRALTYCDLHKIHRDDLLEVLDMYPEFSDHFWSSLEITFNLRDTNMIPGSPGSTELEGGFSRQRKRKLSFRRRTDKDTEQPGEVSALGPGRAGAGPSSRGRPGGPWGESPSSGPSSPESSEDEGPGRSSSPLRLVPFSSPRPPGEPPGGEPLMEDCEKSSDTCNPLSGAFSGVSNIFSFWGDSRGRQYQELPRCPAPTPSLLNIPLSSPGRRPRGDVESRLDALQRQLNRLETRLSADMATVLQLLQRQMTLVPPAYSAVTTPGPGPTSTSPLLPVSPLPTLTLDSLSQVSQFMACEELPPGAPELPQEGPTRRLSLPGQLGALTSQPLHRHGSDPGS

| Structure (SMILES) | hERG current change (%, negative = inhibition) at 1uM [%] |
| --- | --- |
| CCOP(=O)(OCC)C(NC(C)=O)C(Cl)(Cl)Cl (centres unmarked) | 19.2 |
| COC(=O)c1cc(NC(=O)CC2SCCNC2=O)cc(C(=O)OC)c1 (centres unmarked) | 15.1 |
| CC1CC(c2ccccc2)n2nc(NC(=O)CCc3ccccc3)nc2N1 (centres unmarked) | -1.41 |
| O=c1oc2ccccc2c(N2CCCCC2)c1[N+](=O)[O-] | 2 |
| CC(OC(=O)CCN=C1NS(=O)(=O)c2ccccc21)C(=O)c1ccccc1 (centres unmarked) | 16.7 |
| CCN1CCc2c(C#N)c(N3CCOCC3)nc(NCCO)c2C1 | 11.2 |
| NC(=O)c1ccccc1NC(=O)c1cc(S(=O)(=O)N2CCCCC2)ccc1N1CCOCC1 | -60.5 |
| CCCOC(=O)c1ccc(-c2c(C)noc2-c2ccc(OC)cc2O)o1 | 14.1 |
| O=C(Nc1ccccc1)C1=C[C@H](c2csc3ccccc23)C[C@H](OCc2ccc(CO)cc2)O1 | 8.87 |
| CC(OC(=O)CCN=C1NS(=O)(=O)c2ccccc21)C(=O)N(C)c1ccccc1 (centres unmarked) | 3.91 |
| O=C1CCCc2ccccc2N1Cc1cccc(F)c1 | 6.59 |
| CCC(CC)c1nnc(NC(=O)c2cc([N+](=O)[O-])ccc2N2CCCCC2)s1 | 11.2 |
| Oc1ccc(Br)cc1CNc1ccccn1 | -0.815 |
| COC(=O)c1ccc(OC)c(CN2CCCN(Cc3ccc(F)cc3)S2(=O)=O)c1 | 3.67 |
| Cc1c(-c2ccc(F)cc2)nc(N)c(C#N)c1-c1ccco1 | 0.307 |
| COc1cc(-c2cc(C(=O)NN3CCN(C)CC3)c3ccccc3n2)cc(OC)c1OC | 0.759 |
| CSc1ncc(Sc2ccccc2)c(C(=O)O)n1 | 10.3 |
| CCS(=O)(=O)c1ccc(N)cc1.Cl | 17.2 |
| CC(C)C1Cc2[nH]c(=O)c(C(=O)O)cc2CO1 (centres unmarked) | 3.48 |
| Cc1c(Cl)cccc1NC(CC(=O)c1ccccc1)C(=O)OCC(=O)c1cccs1 (centres unmarked) | 2.81 |
| COc1cc(C(=O)Nc2ccc(NC(=O)c3ccco3)nc2)cc(OC)c1OC | 11.4 |
| Cc1cc(NC(=O)C2CCCO2)ccc1Br (centres unmarked) | -0.258 |

| Structure (SMILES) | hERG current change (%, negative = inhibition) at 1uM [%] |
| --- | --- |
| c1ccc2c(-c3cc(C4CCNCC4)[nH]n3)cccc2c1 | 1.18 |
| Cc1cccc(C(=O)N[C@@H](C)C(=O)N2CCN(c3ncccn3)CC2)c1 | 9.3 |
| CC(C)NS(=O)(=O)c1ccc(CCC(=O)Nc2ccc3c(c2)OCO3)cc1 | 5.87 |
| O=C(N/N=C\c1ccc(Cl)s1)c1ccc(Cn2cccn2)o1 | -7.96 |
| Cc1cc(Cl)ccc1OCC(=O)n1cc(C(=O)c2cc(Cl)ccc2O)cn1 | 11.2 |
| Cc1ccccc1NC(=O)c1c(F)c(F)c(F)c(F)c1F | 11.1 |
| CC(C)CCNC(=O)C(c1cccnc1)N(CCc1ccccc1)C(=O)Cn1nnc2ccccc21 (centres unmarked) | 3.22 |
| CCCCC/S(CC1CC1(Cl)Cl)=N\S(=O)(=O)c1ccc(C)cc1 (centres unmarked) | 17.5 |
| O=C(CCl)c1ccc2c(c1)CCN2C(=O)C1CCCCC1 | 18.5 |
| O=C(Cc1cccc2ccccc12)N/N=C/c1ccc2cccc(O)c2n1 | 9.14 |
| Cc1cc(C)n(CC(O)CN(c2cccc([N+](=O)[O-])c2)S(=O)(=O)c2ccccc2)n1 (centres unmarked) | 17.2 |
| O=C(CNC(=O)c1ccc(S(=O)(=O)N2CCCC2)cc1)N/N=C/c1ccccc1 | -0.632 |
| COc1cccc(-n2c(SCC(=O)NCCc3ccccc3)nnc2-c2ccoc2C)c1 | -50.4 |
| CCCSc1sc(C(=O)OC)c(-c2cccs2)c1C#N | -9.27 |
| CC1=NN(c2ccccc2)C(=O)/C1=C/c1c(O)[nH]c(=S)[nH]c1=O | 12.6 |
| CCC(=O)c1ccc(OCC(=O)Nc2cc(S(=O)(=O)N3CCCCC3)ccc2OC)cc1 | 4.24 |
| Cc1cccc(CC2CC(=O)N(C3CCCCC3)C2=O)c1 (centres unmarked) | 7.75 |
| O=C(CN1C(=O)NC2(CCCC2)C1=O)OCCOc1ccc(Cl)cc1 | 8.78 |
| COCCn1cnnc1SCC(=O)Nc1sc2c(c1C#N)CCC2 | 13.2 |
| CC1Nc2ncnc(N3CCN(c4ccccc4)CC3)c2N(Cc2ccccc2)C1=O.O=C(O)C(F)(F)F (centres unmarked) | 11.4 |
| CS(=O)(=O)N(CC(=O)NCc1ccc2c(c1)OCO2)Cc1ccc(Cl)cc1 | -20.3 |
| COc1ccc(CC2(CO)CCN(Cc3ccc4c(c3)CCO4)CC2)cc1 | -24.2 |
